± gives the standard deviation of the averaged measurements. The list shows a part of the results.
System: PfAP2-G AP2 domain (GST-tagged)
Test: gcPBM binding intensity (ln(normalized median fluorescence intensity)); higher = stronger DNA binding
Outline: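 Binding intensity is the highest Masliner-normalised natural-log median intensity over replicate spots in either probe orientation. To obtain it, GST-tagged P. falciparum DNA-binding domains made in E. coli were incubated for 1 h on an Agilent 4 × 180k array of primer-extended double-stranded 36-bp intergenic genomic probes plus negative controls. Detection used Alexa488 anti-GST antibody with scanning at 488 nm.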

Row | Sequence | gcPBM binding intensity (ln)
1 | TTTTCTATAAGATTTGCACACAACTTATTCTATTAA [CACACA_site3752] | 10 ± 0.11
2 | ATAAATAAATAAATAAATATATATATGAAATAATGT [TGCATGCA_negctrl_site12] | 9.725 ± 0.064
3 | ATTTTTTTTATGTATTATGCTTTTATATCCTTCATA [CACACA_negctrl_site1244] | 9.91 ± 0.042
4 | ATTTCTTTTACATTTACATGCAATGCTCTATAGATA [TGCATGCA_site62] | 9.955 ± 0.035
5 | AAAGAATTTGCATATACACACAAAAAAATAAATACA [CACACA_site4373] | 10.2
6 | TACACAGACGGACACACACACACACTAGAAAAAAAA [CACACA_site4435] | 11.7 ± 1.2
7 | ATATATATATACATATGTACATATATATTTATACAT [XGTACX_site2463] | 11 ± 0.58
8 | AGTATAAATATATTATGTACATATATATTATACTTA [XGTACX_site2623] | 11.2 ± 0.59
9 | TTATATACATTAAATGAACACACATAAATAAATTAC [CACACA_site8927] | 10.1 ± 0.11
10 | AATATAATATAATGCACACATAAAAAAAAAAAAATC [CACACA_site1303] | 10.2 ± 0.43
11 | AATGCACTATTTAAAAGTACACATAAGAAAAGCATA [XGTACX_site1739] | 11.5 ± 0.96
12 | GCTAAACAATAGTTTGCACACAATTTAAATATATAT [CACACA_site193] | 10.03 ± 0.071
13 | AAATTATTATATATATGTACGTATAATGTATTTTGT [XGTACX_site2903] | 11.5 ± 1.1
14 | AAATATAGAATACATGTGCACATAATATATATATAT | 10.5 ± 0.28
15 | TTTTTTGTATTTTTCACACACACATAAGTAAACAAT [CACACA_site1900] | 10.4 ± 0.35
16 | TATTATGTATGTATATGTACGTATCTTATTTTATTT [XGTACX_site5008] | 11.3 ± 0.76
17 | AATACAATTTATAACACACACACAAGAATACCTATA [CACACA_site6705] | 10.2 ± 0.11
18 | TCTTTTTAAGGGATTTTTTTTTTTTTTTTAAAAAGA [CACACA_negctrl_site1274] | 10 ± 0.27
19 | TTTGTATCTATATATTGTACGAATTACTTTCATTTA [XGTACX_site4785] | 11.1 ± 0.5
20 | AAAAAAAAAAATTAAAGTACAAAAATATTAAAAATA [XGTACX_site6517] | 11 ± 0.51
21 | AAATGTAAATTTATCCGTACATATATATATTTATAT [XGTACX_site7024] | 11 ± 0.68
22 | AAAAAAAAAAAAATATATATATATATATATATATAT [GTGCAC_negctrl_site212] | 9.76 ± 0.54
23 | AAAAAAAATTTCTTCACACATAAATAAATAAATAAA [CACACA_site4841] | 9.7 ± 0.014

Row | Sequence | gcPBM binding intensity (ln)
24 | ATAAACATGGAAATGTATTAAAAGCAAGTATATAAA [XGTACX_negctrl_site516] | 10.105 ± 0.007
25 | TGTTGTTACAGATATACACACATATATATATTATAT [CACACA_site5342] | 10.1 ± 0.15
26 | TTGGGTGCATATATTTGTACACATTATTTCTATTTT [XGTACX_site3688] | 11.4 ± 1
27 | TAAATTATAACGTGCACACATATTTAAAATGAAATG [CACACA_site2820] | 10.6 ± 0.45
28 | ATTAAAAATTCAATTGCACACGCACATATTTTAATA [CACACA_site8618] | 10.1 ± 0.23
29 | ATGTAATAAAATAATTGTACAATGTAACTAATTTTT [XGTACX_site2871] | 10.8 ± 0.44
30 | ATATGTATATATACATGTACATATTTTTCCTTTCTT [XGTACX_site149] | 11.2 ± 0.75
31 | TGCATTTATATCTTCACACATATATATATATATATA [CACACA_site4516] | 10 ± 0.26
32 | ACATAAATAAATTAATGTACATATATATTTGTATAT [XGTACX_site3160] | 11.1 ± 0.56
33 | TATATATATATATATACACACACACCCATATATATA [CACACA_site8812] | 10.5 ± 0.79
34 | TTTTTATATGTTAAGTGTACGTTTACATTTTATACT [XGTACX_site3485] | 11.6 ± 1.1
35 | TTTTTTTTTTTTTCAAGTACATATATATATATATAA [XGTACX_site2098] | 11 ± 0.77
36 | CATATATTTTGAAACACACACATATATAATATACAT [CACACA_site1158] | 10.1 ± 0.13
37 | ATGATACTAAAAAATTGTACATATAACAAAAGGTAT [XGTACX_site2527] | 11.1 ± 0.65
38 | AGAACTAAAAGAACATGTACATAAATTCTAAATAAT [XGTACX_site4084] | 11.2 ± 0.7
39 | TTTGTATAATACATGTGTACGTATTTTTATATAAAT [XGTACX_site8656] | 11.6 ± 0.95
40 | TTATCATTATATAGTTGTACATATTTATTTATAAAA [XGTACX_site2310] | 11.5 ± 0.86
41 | TATTTTGTTTTAAAAGTACACACTTTTAATTAGATT [CACACA_site1180] | 11.5 ± 1
42 | ATATTTAAGGCGTGTATGCACACGACTATTCCGTAT [CACACA_site1080] | 10.2 ± 0.15
43 | TTAATTTGTTCTTACACACACATATAAATATATTTA [CACACA_site6676] | 10.11 ± 0.071
44 | ATAACAAAATGAAGAGTGCATTACCAAGTGGGTAAA [GTGCAC_site9450] | 10.1 ± 0.13
45 | TACCTATATAGACACACACACATATATTTATTTATA [CACACA_site6728] | 10.1 ± 0.13
46 | ATATGTACAAGTGTTTATGCTGAACGGAAATCCTGT [CACACA_negctrl_site1372] | 11 ± 0.65

Row | Sequence | gcPBM binding intensity (ln)
47 | ATTATTATATATGTATGTACTTATATAATATATATA [XGTACX_site5198] | 11.2 ± 0.75
48 | TATATATTGTTATATACACACATGTATTTAAAAAAT [CACACA_site5737] | 10.2 ± 0.39
49 | TTAACAAAACATAAGGTGCTTAAAATTTTATATCAC [GTGCAC_site9839] | 9.84 ± 0.042
50 | TCTGTTAAACAAAAAAGTACTAAAATAATGTAAAAT [XGTACX_site6826] | 11.2 ± 0.6
51 | TATAAACATAATATTTAACACACATGAAGATGTATA [CACACA_site8252] | 9.91 ± 0.13
52 | AATATATATACTATAACACACATACACCCAAAAAAA [CACACA_site4453] | 10.4 ± 0.26
53 | TTATATGGATATACAGTGCATATATACATATAAGTG | 10.1 ± 0.14
54 | AAAAAAAAAAGAAACACACACATATATATATAGAAT [CACACA_site1777] | 9.65 ± 0.22
55 | CATACCTTTTAATGTACACACATTTCTTTTTTGTTA [CACACA_site892] | 11.3 ± 0.72
56 | TATATGTATTTGTATACACACAAATGTATATATTTA [CACACA_site1265] | 9.97 ± 0.18
57 | ATGTATTAAAATTTATGTACTTATATATAAATATAT [XGTACX_site1025] | 11.2 ± 0.88
58 | ATATGATCATACTGTGCATGTTAATGCAAATTTTAT [TGCATGCA_site984] | 10 ± 0.11
59 | TACATATATTATACATGTACACATTTATACATATCG [XGTACX_site2866] | 11.4 ± 0.88
60 | AAAAAAAAAAAAAAAACACACATTTAGCAATCTACA [CACACA_site3706] | 10.4 ± 0.11
61 | TTTTTTTTTATATAAAAAAAAATTTTTATTATTTTA [GTGCAC_negctrl_site347] | 9.42 ± 0.14
62 | CGCACAGACGGACACACACACACATATATATATATA [CACACA_site5249] | 11.5 ± 1.1
63 | ATAATTGTCCATTTTTTCTTTTTTTTTTTCTTTTTA [CACACA_negctrl_site928] | 10.6 ± 0.21
64 | TTCTCCTAATAGTTAGTGCACTACATAACTAAGAAA | 10.7 ± 0.57
65 | ATATTATACCCGTGTACACATTATAACCATATATAA [CACACA_site5933] | 11.7 ± 0.82
66 | TAAAATTAATTTCTGTTGCACTTATTATTAATTAAC | 10.1 ± 0.13
67 | TTTTTTTTTTTTTGCACACACCATATTTATAGAAAT [CACACA_site5772] | 10.2 ± 0.38
68 | TATATGTATAGAAAATGTACATATAAATATATATAT [XGTACX_site3420] | 11 ± 0.67
69 | TTTTATGTAACATCACGTACTTATATTTAAGTATTC [XGTACX_site7459] | 11 ± 0.3

Row | Sequence | gcPBM binding intensity (ln)
70 | CAAGCACACGGACACACACACACACGCGCACGCACA [CACACA_site6307] | 11.3 ± 0.85
71 | CAATTTATTTTTATTACACACTATCCAAGTAATTTC [CACACA_site7402] | 10.09 ± 0.071
72 | GTCATATTAATATGTACACACATATTTATATTTATA [CACACA_site6798] | 11.3 ± 0.9
73 | TTTTTACTATTTATATGACTAAAAATATATTGAATA [CACACA_negctrl_site188] | 10 ± 0.24
74 | TAAATTAATAAACAAGTGCATATATATATATATATA | 10.3 ± 0.69
75 | TAATTTTTCCAACTTTGTACAGATATATTAATAAAA [XGTACX_site7856] | 10.7 ± 0.43
76 | TCTTTTAAATAACAACATAAATAAATAAATAAATAA [GTGCAC_negctrl_site319] | 9.56 ± 0.11
77 | GTTGATACATGAAGCTGTACATAATATTTGTCATTT [XGTACX_site8628] | 11 ± 0.57
78 | AAATATATCATACAAAGTACTTGGAATTAATATATA [XGTACX_site8907] | 10.9 ± 0.67
79 | AATATAATATAATGCACACATAAAACAAAAAAAAAA [CACACA_site3012] | 10.2 ± 0.4
80 | AAAAAAAAAATATCATGTACAAATATAATAAAATTT [XGTACX_site3896] | 10.7 ± 0.36
81 | CCTTTATTTTATATGTGTACTAAATTGTATATATAT [XGTACX_site8717] | 11.3 ± 0.77
82 | ATGTTTTATAAAAGGCGTACACATATGCTTAAGTAA [XGTACX_site6232] | 11.8 ± 0.94
83 | CTGAAGGAAAAAGAAAGTACTTTTTTTTTTTTGAAG [XGTACX_site5973] | 11.2 ± 0.59
84 | GGCATTTTATGAAGTAGTACCATAAATATTAAAGAT [XGTACX_site5287] | 11.3 ± 0.84
85 | TATAGCAAAAAATTTACACACATGTTTTTTCTATAC [CACACA_site325] | 9.91 ± 0.11
86 | AATTAAAATAGTAATACACACTTCATAGGAAATGAT [CACACA_site5045] | 9.83 ± 0.014
87 | TATGTATCAAATAAATGTACATATATATATATATAT [XGTACX_site2189] | 11 ± 0.61
88 | AATAATAAAATAAAGGCATGCACAATATGCTATAAA [TGCATGCA_site645] | 9.8 ± 0.16
89 | TAAAATATATAAAACTGTACATTTTAAAGGCACAAC [XGTACX_site8342] | 11 ± 0.66

— the supplement of paper PMC11417369
